The campaign covered roughly 48,000 compounds. About 450 (0.94%) were called active. About 19% were inconclusive and are not listed. Calls follow the shape of the dose curve; as a rule, active = well fitted inhibition curve with a large enough effect; inconclusive = small, poorly fitted or top-dose-only effect; inactive = no such curve, though single readings can be large or run the other way. This is one part of the list.
experiment: Primary qHTS for Identification of Small Molecule Inhibitors of Huntingtin Promoter Activity; details: HEK293 HTT promoter firefly luciferase reporter (activity 0% = vehicle and -100% = no light), 24 h; series mostly up to 57.5 µM; activity change, negative = inhibition: at the top concentration; also: nearly all actives have a fitted effect of over 50% in size
Method in brief: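 HEK293 cells carrying firefly luciferase reporters were seeded at 2,500 per well in Opti-MEM and cultured for 24 h. They were then treated with compounds at up to 57.5 uM final for 24 h at 37 degrees C before Dual-Glo luminescence readout.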

Activity change, negative = inhibition, inactive:
Cc1ccc(CNc2nc(-c3ccco3)nn2C(=O)c2ccccc2[N+](=O)[O-])cc1 32.5%, COc1ccc(N2CC(C(=O)NCCS(=O)(=O)N3CCN(c4ccccc4)CC3)CC2=O)cc1 (stereo not drawn) -4.09%, CC(C)OCCCNC(=O)c1cn(C)c2ccc(S(=O)(=O)N(C)C3CCCCC3)cc2c1=O -6.01%, O=C(CCCN1CCN(c2ccccn2)CC1)c1ccc(F)cc1 -18.3%, COc1ccc(S(=O)(=O)N2CCC(Oc3cccc(C(F)(F)F)c3)CC2)cc1OC -11.9%, Cc1ccc2occ(-c3cc(-c4ccccc4)nc4c3COc3ccccc3-4)c(=O)c2c1 -7.01%, Cc1ccc(-n2c(=O)c3c(C)c(C(=O)N(C)C)sc3n(CC(=O)N(C)c3ccccc3)c2=O)cc1C -4.27%, Cc1ccc(C)c(NC(=O)CSc2nc3nccnc3c(=O)n2CCc2c[nH]c3ccccc23)c1 -5.91%, CCc1cccc(C)c1NC(=O)CN1CCN(Cc2ccccc2Cl)S1(=O)=O -3.5%, O=C(Nc1ccc(-c2nc3cc(Cl)ccc3o2)cc1)c1cc(Br)ccc1Cl -14.5%, CCN(C(=O)CSc1nc2ccccc2c2nc(CCn3c(C)nc4ccccc43)nn12)c1cccc(C)c1 -8.98%, COc1cc(C(=O)NC2(C(F)(F)F)C(=O)NC(C)=C2C#N)cc(OC)c1OC (stereo not drawn) -7.11%, CCN(CC)S(=O)(=O)c1ccc2c(c1)N(CC(=O)N1CCN(c3cccc(C)c3)C(C)C1)C(=O)CO2 (stereo not drawn) -24.1%, COc1ccc(-c2csc3nc(-c4ccc(Cl)cc4)oc(=O)c23)cc1 -4.05%, Cc1cccc(NC(=O)CCn2cnnn2)c1 -13.8%, Cc1ccc(Nc2c(-c3ccc(N4CCOCC4)cc3)nc3ccc(C)cn23)cc1 -5.72%, COc1ccc(NC(=O)CSc2nnc(N)s2)cc1 11.8%, Cn1c(=O)oc2cc(S(=O)(=O)NC(CC(=O)O)c3cccc(Br)c3)ccc21 (stereo not drawn) -1.03%, Cc1cccc(NC(=O)NCCn2c(=O)oc3ccc(C)cc32)c1 -9.79%, COc1cccc(NC(=O)c2sc3nc(N4CCOCC4)c4c(c3c2N)CC(C)(C)OC4)c1 38.7%, Cc1oc2c(c1C(=O)NCc1cccc(Br)c1)C1=NCCN1C=N2 6.55%, Cc1ccc(CNC(=O)CCCn2c(=O)c3ccccc3n(CC(=O)C(C)(C)C)c2=O)cc1 -5.31%, CCOC(=O)Cn1c(=O)n(CC2CCCO2)c2nc(-c3ccc(OC)cc3OC)nc(C(N)=O)c21 (stereo not drawn) -12.9%, COc1cc(NC(=O)C(CC(C)C)NS(=O)(=O)c2ccc3c(c2)CCCC(=O)N3)cc(OC)c1 (stereo not drawn) -10.9%, COc1ccc(CNC(=O)CN(c2ccc(C)cc2)S(=O)(=O)c2c(C)n[nH]c2C)cc1 -5.12%, COc1ccc2oc(=O)c(-c3csc(/C(C#N)=C/c4ccc(F)cc4)n3)cc2c1 -3.01%, COc1ccccc1N1CCN(C(=O)C2CCN(S(=O)(=O)c3cnc[nH]3)CC2)CC1 3.12%, CCOc1ccc(NC(=O)Cn2c(=O)n(-c3ccc(C)cc3)c(=O)c3cc(OC)c(OC)cc32)cc1 2.7%, Cc1ccc(C)c(N2CCN(C(=O)c3cnc4c(-c5ccccc5)c(C)nn4c3C)CC2)c1 -15.6%, Cc1ccc(/C=C(\C#N)C(=O)Nc2cc(C)ccc2C)cc1 -0.476%, CCOC(=O)c1c(NC(C)=O)c2c3c(sc2n1Cc1nc(-c2ccccc2OCC)oc1C)CCCC3 3.95%, CC(C)(C)OC(=O)N[C@H]1CCCCCC=C[C@@H]2C[C@@]2(C(=O)NS(=O)(=O)C2CC2)NC(=O)[C@@H]2C[C@@H](OC(=O)N3Cc4cccc(F)c4C3)CN2C1=O -13.4%, COc1cc(C)c(Cl)cc1S(=O)(=O)NCCc1c(C)[nH]c2ccccc12 -2.9%, Cc1ccc(C)c(CN2C(=O)c3ccccc3S(=O)c3ccc(C(=O)NCc4ccccc4Cl)cc32)c1 (stereo not drawn) -12.6%, CCN(CC)c1ccc(C(=O)NCc2ccc3c(c2)CCN3C(=O)c2ccccc2)cc1 -11.7%, Brc1ccccc1-n1ncc2c1ncn1nc(Cc3ccccc3)nc21 37%, Cc1ccc2c(c1)N(C(=O)CCC(=O)Nc1ccccc1Cl)CC(C)O2 (stereo not drawn) -19.8%, O=c1cc(CSc2ncn[nH]2)[nH]c2c(Cl)cccc12 0.441%, COc1ccc(OC)c(Nc2nc(-c3ccc(C)cc3)nc3ccccc23)c1 7.38%, O=C(CSc1nnc(NC(=O)NC2CCCCC2)s1)Nc1ccccc1F 15.7%, CCOC(=O)c1c(C)[nH]c(C)c1S(=O)(=O)NCC(=O)Nc1cccc(C(F)(F)F)c1 -24.7%, CC1CCCN(C(=O)Cn2c(=O)oc3cc(S(=O)(=O)N4CCCCC4)ccc32)C1 (stereo not drawn) -12.1%, Cc1ccc(-c2nnc(Nc3ccc(Br)cc3)c3ccccc23)cc1S(=O)(=O)N1CCOCC1 -12.2%, COc1ccc(-n2c(=O)c3sc4ccccc4c3n(CC(=O)Nc3cccc(C)c3)c2=O)cc1 5.02%, Cc1ccc(NC(=O)C(Cc2ccccc2)NS(=O)(=O)c2ccc3c(c2)oc(=O)n3C)c(Cl)c1 (stereo not drawn) -21%, CC1=C(C(=O)Nc2ccccc2C)C(c2cccnc2)n2nc(SCc3ccccc3)nc2N1 (stereo not drawn) -8.86%, CCOC(=O)N1CCc2c(sc3c2c(=O)n(CCc2ccccc2)c(=O)n3Cc2cc(C)ccc2C)C1 -7.91%, COCCNC(=O)Cn1cc(S(=O)(=O)Cc2ccccc2Cl)c2ccccc21 2.07%, CCOc1ccccc1NC(=O)c1cn(C2CCCC2)c(=O)c2c1c1ccccc1n2C -4.79%, COc1ccccc1NC(=O)C1=C(C)Nc2nc(SCc3ccccc3)nn2C1c1ccccn1 (stereo not drawn) -11%, CCN(CC)S(=O)(=O)c1ccc2c(c1)N(CC(=O)NCCc1ccc(OC)c(OC)c1)C(=O)CO2 -15.3%, Cc1nc2c(c(C)c1CCC(=O)Nc1cccc(C(F)(F)F)c1)c(=O)n(C)c(=O)n2C -9.47%, Cc1nnc(NC(=O)CSc2nccn2-c2cccc(Cl)c2)s1 -26.1%, COc1ccc(C(=O)Nc2ccccc2C(=O)OCc2cc(=O)n3c4c(sc3n2)CCCC4)cc1 -13.2%, O=C(CCC(=O)N1CC2CCCN2c2ccccc21)NCc1ccccc1Cl (stereo not drawn) -26.4%, COc1ccccc1CNc1nc2nc(C)c(Cl)c(C)n2n1 -16.9%, COC(=O)c1c(NC(=O)c2cccc(OC)c2)sc2c1CCC(C(C)(C)C)C2 (stereo not drawn) -24.5%, Cc1cccc(-c2nc(SCC(=O)Nc3cc(C)on3)c3c(=O)n(C)c(=O)n(C)c3n2)c1 -10.1%, COCCCNC(=O)c1ccc2c(c1)N=C(C)c1c(C)ccc(C)c1S2 -46.2%, COc1ccc(N2CCN(c3ccc(-c4nc(-c5ccccc5C)no4)cc3[N+](=O)[O-])CC2)cc1 2.9%, Cc1ccc(NC(=O)N2CCC(N3CCN(Cc4ccccc4)C(=O)C3=O)CC2)cc1Cl 0%, Cc1cccc(CNC(=O)C2CCCN(S(=O)(=O)c3cn(C)cn3)C2)c1 (stereo not drawn) -12.3%, CC(C)(C)[N+]([O-])=Cc1ccc(S(=O)(=O)O)cc1S(=O)(=O)O -5.93%, CCCCCn1c(=O)[nH]c2cc(C(=O)Nc3cc(OC)cc(OC)c3)ccc2c1=O -21.9%, Cc1ccc2oc(=O)c3cc(C(=O)N4CCN(c5ccccc5)CC4)sc3c2c1 5.45%, CN(C)S(=O)(=O)c1ccc2c(c1)N(CC(=O)NCc1ccccc1)C(=O)C1CCCCN21 (stereo not drawn) -7.57%, O=C(O)Cc1ccc(CCNS(=O)(=O)c2ccc(Cl)cc2)cc1 3.34%, Cc1ccccc1CCNC(=O)c1ccc2c(c1)c(C)c(C)n2C 28.9%, CCCCCNC(=O)c1c[nH]c2ccc(S(=O)(=O)N3CCC(C)CC3)cc2c1=O -13.7%, CCC1CN(C(=O)NCc2ccc(C)cc2)c2cc(C)ccc2O1 (stereo not drawn) -11.3%, Cc1nn(S(=O)(=O)c2ccc(C(C)C)cc2)c(C)c1S(=O)(=O)N1CCCCCC1 -7.35%, Cc1ccc(NC(=O)CSc2nc3ccccc3nc2Cc2ccccc2F)cc1F -4.31%, COc1ccc(-c2nsc(NC(=O)COc3ccc(C)c(C)c3)n2)cc1 7.33%, CCc1ccccc1NC(=O)C1(S(=O)(=O)c2ccc(Cl)cc2)CC1 -11.2%, Cc1ccc(C)c(N2CCN(C(=O)c3cc4ccc5cccnc5c4[nH]3)CC2)c1 -6.26%, Cc1cc(C)cc(NC(=O)CN2C(=O)CSc3ccc(S(=O)(=O)N(C)C)cc32)c1 -24.8%, CCOC(=O)c1c(C)oc2ncnc(Nc3ccc(F)cc3Cl)c12 -12.3%, COc1ccc(-c2oc3ncn4nc(-c5cccc(C)c5)nc4c3c2-c2ccc(OC)cc2)cc1 -10.2%, Cc1ccc(CN2C(=O)c3ccccc3Sc3ccc(C(=O)NC4CCCCC4)cc32)cc1 44.8%, COc1cc(C(=O)Nc2nnc(S(=O)(=O)N(C)c3ccccc3)s2)cc(OC)c1OC -7.62%, Cc1ccc(-c2nc3n(n2)C(c2ccccc2C)C=C(c2ccc(Cl)cc2)N3)cc1 (stereo not drawn) -13.5%, COc1ccccc1CNC(=O)CS(=O)(=O)c1cccc2nsnc12 -9.46%, COc1ccc(OC)c(NC(=O)CCn2cnnn2)c1 -5.04%, COc1ccc(CCNC(=O)c2cc(-c3ccc(C)cc3)nc3n[nH]c(-c4ccccc4)c23)cc1OC -17.4%, COc1ccc(CNC(=O)c2cc3c(=O)[nH]c4ccc(C)cc4c3s2)c(OC)c1 -5.73%, Cc1ccn2c(Nc3ccc(F)cc3)c(-c3ccc(C)o3)nc2c1 -1.68%, O=C(NC1CC(=O)N(c2ccc(F)cc2)C1)c1cccs1 (stereo not drawn) 5.05%, CC(C)OC(=O)C1=CN(C(=O)c2ccc(F)c(F)c2)CC(C)(C)c2c1[nH]c1ccccc21 10.7%, COC(=O)[C@@H]1CC2=CC(=O)CC[C@]2(C)[C@@]23O[C@@H]2C[C@@]2(C)[C@@H](CC[C@@]24CCC(=O)O4)[C@H]13 2.57%, COc1ccc(CNC(=O)C2CCN(c3nc4ccccc4[nH]3)CC2)c(OC)c1 5.99%, CN1CCN(C(c2ccccc2)c2ccccc2)CC1 0.0625%, CCCCOc1ccc(OC(=O)c2sc3ncn(Cc4cccc(F)c4)c(=O)c3c2C)cc1 -7.13%, COc1cc2nc(SCc3ccc(Cl)cc3)n3nc(CCn4nc(C)cc4C)nc3c2cc1OC -4.73%

— PubChem BioAssay AID1508623 (National Center for Advancing Translational Sciences (NCATS), 2021)
